# Test results: a collection of fitness landscapes (doi:10.1126/science.1257360)
# This is one part of the list.
# B1: PhoQ; a variant is named by its letters at X, in order, P23837 (parent)
# chain: MKKLLRLFFPLSLRVRFLLATAAVVLVLSLAYGMVALIGYSVSFDKTTFRLLRGESNLFYTLAKWENNKLHVELPENIDKQSPTMTLIYDENGQLLWAQRDVPWLMKMIQPDWLKSNGFHEIEADVNDTSLLLSGDHSIQQQLQEVREDDDDAEMTHSVAVNVYPATSRMPKLTIVVVDTIPVELKSSYMVWSWFIYVLSANLLLVIPLLWVAAWWSLRPIEALAKEVRELEEHNRELLNPATTRELTSLVRNLNRLLKSERERYDKYRTTLTDLTHSLKTPLXXLQXXLRSLRSEKMSVSDAEPVMLEQISRISQQIGYYLHRASMRGGTLLSRELHPVAPLLDNLTSALNKVYQRKGVNISLDISPEISFVGEQNDFVEVMGNVLDNACKYCLEFVEISARQTDEHLYIVVEDDGPGIPLSKREVIFDRGQRVDTLRPGQGVGLAVAREITEQYEGKIVAGESMLGGARMEVIFGRQHSAPKDE
# Variants of: B1
# Test: enrichment ratio after two sorts for PhoP signalling (ratio (wild type AVST 3.29)); higher = more functional
# Details: with PhoP (E. coli)
row,Variant,enrichment ratio
1,ALPP,≤ 0.25
2,RTVW,≤ 0.25
3,FLCP,≤ 0.25
4,VHSM,≤ 0.25
5,HKCI,≤ 0.25
6,HIWR,≤ 0.25
7,TKMA,20.5
8,NPMT,≤ 0.25
9,VWRS,≤ 0.25
10,WYLA,≤ 0.25
11,VQMF,≤ 0.25
12,KMCT,≤ 0.25
13,HWIC,≤ 0.25
14,PPRM,≤ 0.25
15,KEPA,≤ 0.25
16,MGCD,≤ 0.25
17,SIWH,6.19
18,PTMW,≤ 0.25
19,WYWW,≤ 0.25
20,FTID,≤ 0.25
21,FPMD,≤ 0.25
22,KACM,≤ 0.25
23,IDML,≤ 0.25
24,LESR,≤ 0.25
25,SYKF,≤ 0.25

row,Variant,enrichment ratio
1,WGAQ,≤ 0.25
2,LGEM,≤ 0.25
3,TDAL,4.89
4,PLHC,≤ 0.25
5,DVDI,≤ 0.25
6,WQEH,≤ 0.25
7,LICY,≤ 0.25
8,TFYS,≤ 0.25
9,KCYA,≤ 0.25
10,HSGD,≤ 0.25
11,WQAC,≤ 0.25
12,QMQH,≤ 0.25
13,DWCV,≤ 0.25
14,DHNP,≤ 0.25
15,IFNP,≤ 0.25
16,YTWR,≤ 0.25
17,HERQ,≤ 0.25
18,RGIP,≤ 0.25
19,GARM,≤ 0.25
20,CTVL,≤ 0.25
21,QTSH,7.41
22,WYWK,≤ 0.25
23,SCVG,5.95
24,LQWT,≤ 0.25
25,ITKW,≤ 0.25

row,Variant,enrichment ratio
1,LYQN,≤ 0.25
2,CLWF,≤ 0.25
3,AEAT,47.1
4,LPDV,≤ 0.25
5,HKVY,≤ 0.25
6,MEPS,≤ 0.25
7,GVPP,≤ 0.25
8,LGAD,≤ 0.25
9,VLAG,≤ 0.25
10,AKTY,1.53
11,LGGC,≤ 0.25
12,GRLY,≤ 0.25
13,RYLA,≤ 0.25
14,DGPH,≤ 0.25
15,RKHM,≤ 0.25
16,GMPC,≤ 0.25
17,HHGN,≤ 0.25
18,YYNR,≤ 0.25
19,LMFE,≤ 0.25
20,MRRQ,≤ 0.25
21,TKNQ,≤ 0.25
22,YQYG,≤ 0.25
23,FWFI,≤ 0.25
24,AQQR,≤ 0.25
25,IIMN,≤ 0.25

row,Variant,enrichment ratio
1,PNHI,≤ 0.25
2,AWLP,≤ 0.25
3,ARVD,≤ 0.25
4,KCTP,≤ 0.25
5,VQFD,≤ 0.25
6,MDNH,≤ 0.25
7,SCYL,0.304
8,ATCM,2.59
9,FGVW,≤ 0.25
10,SIII,≤ 0.25
11,TWYP,0.76
12,IRSG,≤ 0.25
13,RTAC,≤ 0.25
14,PMAR,≤ 0.25
15,IIRH,≤ 0.25
16,RTYK,≤ 0.25
17,VDHK,≤ 0.25
18,ANVR,≤ 0.25
19,EELD,≤ 0.25
20,MRWC,≤ 0.25
21,HRSP,≤ 0.25
22,HIKL,≤ 0.25
23,PDWY,≤ 0.25
24,VRQK,≤ 0.25
25,QGHD,≤ 0.25

row,Variant,enrichment ratio
1,LWCE,≤ 0.25
2,QHGK,≤ 0.25
3,IESL,≤ 0.25
4,SIKN,≤ 0.25
5,RTRM,≤ 0.25
6,PNWI,≤ 0.25
7,SCEV,≤ 0.25
8,MTHV,≤ 0.25
9,RIAQ,≤ 0.25
10,EGSM,≤ 0.25
11,PFRM,≤ 0.25
12,HCPG,≤ 0.25
13,QEYT,20.9
14,YYVL,≤ 0.25
15,KAGQ,≤ 0.25
16,IAYG,≤ 0.25
17,VMTD,≤ 0.25
18,WKQW,≤ 0.25
19,ITAQ,≤ 0.25
20,GWMG,≤ 0.25
21,QSKH,≤ 0.25
22,VMYT,≤ 0.25
23,PMCG,≤ 0.25
24,IKNR,≤ 0.25
25,TTHD,≤ 0.25

row,Variant,enrichment ratio
1,FWPV,≤ 0.25
2,TMNH,0.545
3,KNIT,≤ 0.25
4,QQTG,≤ 0.25
5,ERFA,≤ 0.25
6,DDQT,≤ 0.25
7,WVRS,≤ 0.25
8,LTNR,≤ 0.25
9,VELI,1.31
10,LHPW,≤ 0.25
11,AMLE,≤ 0.25
12,TLNR,≤ 0.25
13,PHGC,≤ 0.25
14,WFGY,≤ 0.25
15,ARAV,≤ 0.25
16,YEVQ,≤ 0.25
17,LKVQ,≤ 0.25
18,EPHT,≤ 0.25
19,ISTR,≤ 0.25
20,FNSR,≤ 0.25
21,LTFI,≤ 0.25
22,RGYH,≤ 0.25
23,IRAT,≤ 0.25
24,FFGT,≤ 0.25
25,NEVT,≤ 0.25

row,Variant,enrichment ratio
1,KSLY,≤ 0.25
2,ADMA,≤ 0.25
3,SNFK,≤ 0.25
4,HTFY,≤ 0.25
5,PGDI,≤ 0.25
6,IFHP,≤ 0.25
7,SCYP,0.781
8,FSLI,12.9
9,NWHD,≤ 0.25
10,PWPK,≤ 0.25
11,GNCL,18.1
12,GCDS,≤ 0.25
13,DTIP,≤ 0.25
14,DIKR,≤ 0.25
15,KHPD,≤ 0.25
16,SQLM,21.3
17,AINC,≤ 0.25
18,QLFQ,≤ 0.25
19,QDPE,≤ 0.25
20,EGSQ,≤ 0.25
21,NNFQ,≤ 0.25
22,LQKF,≤ 0.25
23,SWGW,≤ 0.25
24,TFRF,≤ 0.25
25,TFVK,≤ 0.25

row,Variant,enrichment ratio
1,NFTY,≤ 0.25
2,NTYY,≤ 0.25
3,VAEK,≤ 0.25
4,AERF,≤ 0.25
5,TWRP,≤ 0.25
6,EGTH,≤ 0.25
7,DQPV,≤ 0.25
8,TFKG,≤ 0.25
9,TPEH,≤ 0.25
10,GHPA,≤ 0.25
11,GWNM,≤ 0.25
12,HSME,≤ 0.25
13,NQNP,≤ 0.25
14,TQKH,≤ 0.25
15,NGIK,≤ 0.25
16,VDII,≤ 0.25
17,VRYR,≤ 0.25
18,RHET,≤ 0.25
19,TQWH,21.9
20,VMPG,≤ 0.25
